Results reported in the supplement of paper PMC7826260.
Some of the results follow. Cleavage of a single-stranded DNA pool by Rep nickase domains was read by sequencing for 1 h at 37 °C with 3 µM enzyme; only the middle of the 90-letter strands is printed. A value is the log2 ratio of uncut reads to the pool without enzyme; more negative means more cut, near 0 not cut, and no call is made. Because reads are shares of a total, they shift together; uncut strands gain when others are lost, and binding without cutting may add a little.

These sequences were tested on T1, Rep nickase domain of tomato golden mosaic virus (assay: uncleaved DNA left, log2 of reads against the no-enzyme library (log2 ratio); higher = less cleavage (more negative = more Rep cleavage of the k-mer); sequences stand for … in CTCGTCCG…ACCGGAGA).
T1 sequence (Rep 1-124, printed without the tag): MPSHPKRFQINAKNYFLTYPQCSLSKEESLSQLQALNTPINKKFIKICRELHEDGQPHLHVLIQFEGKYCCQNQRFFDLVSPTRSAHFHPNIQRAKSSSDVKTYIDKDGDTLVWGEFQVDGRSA
Procedure: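 A pool of 90-nt single-stranded DNAs with seven random bases just before the constant AC of the nick site (name = the seven bases) was cut by 3 µM recombinant His6-SUMO-tagged Rep nickase domain (300 nM DNA, 50 mM HEPES pH 8.0, 50 mM NaCl, 1 mM MnCl2, 1 h, 37 °C, three replicates). Uncut DNA was amplified and sequenced.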

Row | Sequence | uncleaved DNA left (log2)
1 | ACACCGC | -0.0812
2 | CGGTAGG | 0.02
3 | GACCACA | 0.0818
4 | GCTACTC | -0.0435
5 | TAGAGTC | -0.111
6 | GCAAAAT | 0.143
7 | TCCTAGC | 0.0114
8 | GACAACG | -0.08
9 | ACTTCGA | -0.0988
10 | CGCTCCA | -0.0297
11 | CCCGGTC | 0.197
12 | ACGAAGA | 0.0552
13 | AAGCACA | -0.0165
14 | CGATGCA | -0.00348
15 | TGTGGTA | 0.184
16 | ACTCAGT | 0.131
17 | CCACGTT | -0.0556
18 | TATCACA | -0.0438
19 | ACAGTCC | -0.0604
20 | GACAATG | 0.159

Row | Sequence | uncleaved DNA left (log2)
21 | GAGATTT | 0.146
22 | CTGGCCA | 0.0603
23 | AAGCTGC | 0.0577
24 | GCACGTT | -0.127
25 | TACCTGA | -0.0215
26 | GGTATTA | 0.0976
27 | GCCGTAA | -0.0697
28 | AAGCCTC | 0.128
29 | TGGCCTA | -0.0721
30 | GTCCATG | 0.132
31 | ATCACAC | -0.0478
32 | GCGGTAA | 0.116
33 | CTTATGC | -0.0819
34 | CGTGCAT | -0.278
35 | TTCCGCC | -0.124
36 | CTTGGGT | 0.0032
37 | GGCCTAA | 0.0696
38 | CTGGTCC | -0.14
39 | CTTCCTG | -0.161
40 | ACCGCTG | 0.134
